Experimental data taken from the supplement of paper PMC7826260.
This is one part of the list. One pool of 16,384 single-stranded DNAs met each Rep nickase domain in vitro at 3 µM enzyme and 37 °C for 1 h; the strands have 90 letters, of which the middle is given. The score is log2 (uncut reads / reads without enzyme); strong cutting gives strongly negative numbers. There is no active / inactive call. Because reads are shares of a total, they shift together; uncut strands gain when others are lost, and binding without cutting may add a little.

Legend:
Experiment in all cases: uncleaved DNA left, log2 of reads against the no-enzyme library (log2 ratio); higher = less cleavage (more negative = more Rep cleavage of the k-mer); sequences stand for … in CTCGTCCG…ACCGGAGA
[1] = test system: T1, Rep nickase domain of Muscovy duck circovirus
T1 sequence (residues 1-111 of Rep, tag left off): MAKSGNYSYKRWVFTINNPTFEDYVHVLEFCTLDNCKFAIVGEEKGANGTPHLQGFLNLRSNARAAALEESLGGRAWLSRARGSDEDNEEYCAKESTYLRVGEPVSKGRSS
Procedure: (§1)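 A pool of 90-nt single-stranded DNAs with seven random bases just before the constant AC of the nick site (name = the seven bases) was cut by 3 µM recombinant His6-SUMO-tagged Rep nickase domain (300 nM DNA, 50 mM HEPES pH 8.0, 50 mM NaCl, 1 mM MnCl2, 1 h, 37 °C, three replicates). Uncut DNA was amplified and sequenced.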

[2] = test system: T2, Rep nickase domain of banana bunchy top virus
T2 sequence (residues 1-94 of Rep, tag left off): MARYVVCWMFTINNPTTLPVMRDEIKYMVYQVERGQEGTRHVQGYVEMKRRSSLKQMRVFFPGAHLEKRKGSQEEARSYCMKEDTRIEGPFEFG
Procedure: as §1

[3] = test system: T3, Rep nickase domain of cabbage leaf curl virus
T3 sequence (residues 1-116 of Rep, tag left off): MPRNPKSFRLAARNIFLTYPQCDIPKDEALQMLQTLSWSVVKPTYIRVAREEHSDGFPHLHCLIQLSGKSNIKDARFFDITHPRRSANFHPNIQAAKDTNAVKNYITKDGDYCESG
Procedure: as §1

[4] = test system: T4, Rep nickase domain of chickpea chlorotic dwarf virus
T4 sequence (residues 1-124 of Rep, tag left off): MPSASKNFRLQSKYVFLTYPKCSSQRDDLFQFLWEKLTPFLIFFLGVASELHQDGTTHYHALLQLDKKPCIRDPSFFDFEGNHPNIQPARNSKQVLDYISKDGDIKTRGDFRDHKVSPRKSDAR
Procedure: as §1

[5] = test system: T5, Rep nickase domain of faba bean necrotic yellows virus
T5 sequence (residues 1-98 of Rep, tag left off): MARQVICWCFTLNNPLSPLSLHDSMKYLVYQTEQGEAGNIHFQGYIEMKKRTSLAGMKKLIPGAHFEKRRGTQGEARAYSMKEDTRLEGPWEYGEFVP
Procedure: as §1

[6] = test system: T6, Rep nickase domain of maize striate mosaic virus
T6 sequence (residues 1-117 of Rep, tag left off): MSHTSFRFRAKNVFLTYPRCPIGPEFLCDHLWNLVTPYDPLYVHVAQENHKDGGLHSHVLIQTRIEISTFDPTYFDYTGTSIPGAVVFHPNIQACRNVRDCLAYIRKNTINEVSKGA
Procedure: as §1

[7] = test system: T7, Rep nickase domain of porcine circovirus 2
T7 sequence (residues 2-116 of Rep, tag left off): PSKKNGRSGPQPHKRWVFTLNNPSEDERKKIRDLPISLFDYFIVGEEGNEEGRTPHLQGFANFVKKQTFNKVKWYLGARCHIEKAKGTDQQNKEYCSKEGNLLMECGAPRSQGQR
Procedure: as §1

[8] = test system: T8, Rep nickase domain of tomato golden mosaic virus
T8 sequence (residues 1-124 of Rep, tag left off): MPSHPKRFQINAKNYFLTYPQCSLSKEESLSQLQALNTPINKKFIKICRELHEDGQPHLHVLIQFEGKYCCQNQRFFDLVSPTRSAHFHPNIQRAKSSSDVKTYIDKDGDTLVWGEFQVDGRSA
Procedure: as §1

[9] = test system: T9, Rep nickase domain of tomato yellow leaf curl virus
T9 sequence (residues 1-136 of Rep, tag left off): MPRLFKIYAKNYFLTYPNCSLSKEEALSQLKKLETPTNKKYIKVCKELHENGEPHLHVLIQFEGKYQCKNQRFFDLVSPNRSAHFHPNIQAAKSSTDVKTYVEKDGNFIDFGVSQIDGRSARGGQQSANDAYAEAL
Procedure: as §1

[10] = test system: T10, Rep nickase domain of wheat dwarf virus
T10 sequence (residues 1-137 of Rep, tag left off): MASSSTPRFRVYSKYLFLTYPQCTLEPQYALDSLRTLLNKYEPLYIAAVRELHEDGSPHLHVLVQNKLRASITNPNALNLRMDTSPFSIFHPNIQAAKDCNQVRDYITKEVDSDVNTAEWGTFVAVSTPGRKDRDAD
Procedure: as §1

Sequence | uncleaved DNA left (log2) [1] | uncleaved DNA left (log2) [2] | uncleaved DNA left (log2) [3] | uncleaved DNA left (log2) [4] | uncleaved DNA left (log2) [5] | uncleaved DNA left (log2) [6] | uncleaved DNA left (log2) [7] | uncleaved DNA left (log2) [8] | uncleaved DNA left (log2) [9] | uncleaved DNA left (log2) [10]
GGTGTGC | -0.0314 | -0.0272 | 0.242 | 0.658 | -0.0291 | 0.594 | 0.0577 | -0.0665 | -0.0893 | 0.0263
TCGCCCT | -0.0686 | -0.012 | -0.11 | -1.5 | -0.121 | -0.28 | -0.26 | -0.193 | -0.0289 | -0.139
GCGAACC | -0.0315 | 0.00743 | 0.0574 | 0.204 | 0.0363 | -0.0482 | -0.134 | -0.0694 | 0.0118 | 0.0908
CCGGAGC | -0.0285 | -0.0371 | -0.113 | 0.0253 | -0.121 | -0.408 | -0.0248 | -0.00909 | -0.0679 | -0.132
CGCAGAG | 0.0615 | 0.0228 | -0.423 | -0.436 | 0.0999 | -0.77 | 0.274 | -0.0255 | 0.0242 | -0.0709
ACCTGGG | -0.0764 | -0.0345 | -0.563 | 0.09 | -0.0224 | -0.555 | -0.0223 | -0.0291 | -0.0231 | -0.048
CGCTCAT | -0.0795 | -0.0828 | -0.0091 | -0.266 | -0.0976 | -0.273 | -0.405 | -0.138 | 0.0734 | 0.0272
AATAGTG | 0.026 | -0.00772 | -0.622 | -0.737 | 0.0363 | -1.17 | 0.153 | -0.0977 | 0.00758 | -0.0687
GATGATT | 0.0786 | -0.0557 | 0.197 | -1.58 | 0.0294 | 1.09 | -0.555 | -0.00383 | 0.0234 | 0.11
ATTATGA | -0.0225 | -0.138 | -0.122 | 0.0168 | -0.0585 | -0.866 | -0.105 | -0.1 | -0.0569 | 0.0161
CTCCCAA | -0.0479 | 0.0751 | -0.00236 | -0.311 | 0.0569 | -0.481 | -0.0348 | -0.029 | 0.0625 | 0.1
CAGAGGT | 0.0911 | 0.12 | 0.404 | 1.13 | 0.0985 | 1.41 | -0.698 | 0.191 | 0.0788 | 0.0985
CGATGTC | 0.0146 | -0.0878 | -0.0835 | 0.133 | -0.176 | -0.144 | -0.0662 | -0.144 | -0.0224 | -0.0395
GGCACCG | 0.0695 | 0.0207 | 0.0311 | 0.0781 | 0.0584 | -0.0524 | 0.136 | 0.0643 | 0.118 | 0.0403
TAGATGT | 0.0961 | -0.177 | -0.348 | -0.875 | -0.0459 | 0.324 | -3.34 | -0.00428 | -0.0365 | -0.0151
CATCGTG | 0.00681 | -0.0414 | -0.837 | -0.438 | -0.0247 | -1.11 | 0.119 | -0.0195 | 0.0487 | -0.0615
AATAGAT | 0.042 | -0.0622 | 0.117 | 1.2 | -0.213 | 1.55 | -0.0386 | 0.026 | -0.145 | 0.0572
CGCCGCG | -0.136 | -0.101 | -0.732 | 0.05 | -0.0675 | -0.683 | 0.0504 | -0.217 | -0.143 | -0.0756
CCAGGTT | -0.105 | -0.179 | 0.17 | 0.665 | -0.264 | 1.53 | -0.0363 | -0.0753 | -0.181 | -0.163
ATAAGCG | 0.00576 | 0.00179 | -0.573 | 0.898 | 0.00303 | -0.32 | 0.121 | -0.0489 | 0.0199 | -0.035
TCCCTTT | 0.0169 | -0.0172 | -0.0191 | -2.05 | 0.0354 | -0.542 | -0.408 | 0.0464 | 0.0322 | -0.201
TAAAGCA | -0.00485 | -0.0661 | -1.6 | -2.45 | -0.0139 | -1.32 | -0.274 | -0.0934 | 0.084 | -0.61
ATCAATT | 0.0661 | 0.0487 | -0.131 | -2.28 | -0.0209 | -0.45 | -0.425 | 0.0289 | 0.145 | 0.0569
TTGTACT | -3.67 | -2.37 | -0.237 | -2.54 | -2.89 | -0.653 | -3.82 | -0.212 | -0.0866 | -0.261
GGCTCAC | 0.0201 | 0.042 | 0.428 | 1.03 | -0.0203 | 1.66 | 0.117 | 0.0754 | 0.0562 | 0.115
GGGAATA | -0.0624 | 0.0269 | 0.866 | 2.01 | 0.0313 | 2.23 | 0.154 | -0.0158 | -0.0182 | 0.169
ATACCCG | 0.052 | -0.0488 | -0.76 | -0.545 | 0.00696 | -1.1 | -0.36 | -0.0605 | -0.0669 | -0.135
GGAACCG | 0.025 | 0.11 | 0.0645 | 0.16 | 0.0564 | -0.128 | 0.131 | 0.127 | 0.047 | 0.0782
TCCTGCG | -0.025 | -0.158 | -0.471 | 1.06 | 0.0076 | 0.354 | -0.00724 | -0.0655 | -0.189 | -0.144
GCCCGAC | -0.22 | -0.358 | 0.123 | 0.311 | -0.229 | -0.04 | -0.047 | -0.154 | -0.171 | -0.226
